The values that follow come from the supplement of paper PMC11417369.

± gives the standard deviation of the averaged measurements. Some of the results follow.

This assay concerns PfAP2-LT AP2 domain (GST-tagged). Description: gcPBM binding intensity (ln(normalized median fluorescence intensity)); higher = stronger DNA binding. In short, it runs like this: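 For binding intensity, the highest Masliner-normalised natural-log median intensity across replicate spots of either probe orientation was taken. Protein bound to the array was stained with Alexa488 anti-GST antibody and scanned at 488 nm. The protein, GST-tagged P. falciparum DNA-binding domains from E. coli at about 25 μg on average, had been applied for 1 h to an Agilent 4 × 180k array of primer-extended double-stranded 36-bp intergenic genomic probes and negative controls.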
Consider “AAAGGATATATCCAGAGTACATATTCTGTGTAATAC [XGTACX_site1547]”, for which the “gcPBM binding intensity (ln)” value turned out to be 8.95 ± 0.53.
In the case of “TTTCAAAAATGAGTTACACACACACCGATATATATA [CACACA_site5263]” it was 9.45 ± 0.38; in that of AATAAATACTAAATGGTGCAAAATTTTTTAACACTG, 8.72 ± 0.35; in that of “TATATATATTATAGATGTACTTTCATATATATGTTT [XGTACX_site8189]”, 8.83 ± 0.49.
In the case of “AGCCACCATATTTACACACACATCAAAATGTATTAA [CACACA_site1816]” it was 9.48 ± 0.38.
Take “TAAATATAATCTAAATGTACATGACATAATTTTTTT [XGTACX_site2856]”: the “gcPBM binding intensity (ln)” value came to 8.49 ± 0.51.
In the case of “GTGTAATATGAAATGTGTACACACGCACACACAAAA [XGTACX_site6180]” it was 9.82 ± 0.28; in that of “TAAAATATTTTTTGTAGTACCTTAATATTTTTGAAG [XGTACX_site3048]”, 8.38 ± 0.4.
To “TATTTATTTATGTACGCACACAGTTGATATTAATTC [CACACA_site2754]” belongs 9.12 ± 0.39; to “ATGTATATTTTTAAAAGTACAGAATTTTCATATGAA [XGTACX_site5754]”, 8.45 ± 0.51.
“ATAGTATCTGGTAGCTGTACGAGTCGTAGAGTCTAA [XGTACX_site2539]”: the “gcPBM binding intensity (ln)” value worked out at 8.82 ± 0.33.
Turning to “ATATACAATACAAAAACACACACAAAAAAAGAAAAG [CACACA_site8668]”, the “gcPBM binding intensity (ln)” value is 9.59 ± 0.4.
In the case of “AACATTTTAAATTATACACACATTTTGAATATATAT [CACACA_site3470]” it was 8.91 ± 0.39.
To “TATACACCCAGACACACACACACACCCAAAAAAAAA [CACACA_site497]” belongs 10.2 ± 0.3; to “TGTTGTTGTAATTATTGTACGTTATGCGATTATTAT [XGTACX_site7005]”, 9.09 ± 0.34; to “TAATGTTACACAAACTTTTCATTCTTTTTAATAAAT [TGCATGCA_negctrl_site331]”, 8.27 ± 0.49.
In the case of “ATATAATTATAAAATAAACACACATATATATTTATA [CACACA_site8039]”, the “gcPBM binding intensity (ln)” value was determined as 8.76 ± 0.42.
Consider “TTATTTATTTATAATTGTACATTGCAAATGAATTTA [XGTACX_site4083]”, for which the “gcPBM binding intensity (ln)” value is 8.38 ± 0.42.
To “ATATATATATATATATGTACATAGAGAAGTATCTTT [XGTACX_site4737]” belongs 9.48 ± 0.042; to “ATTTTATAAAGGAAGTGTACTAATAAATTCAAATTA [XGTACX_site3922]”, 8.38 ± 0.59.
Take “AAAAAAAAAAAAAAATGTACAAATATATACATATAT [XGTACX_site935]”: the “gcPBM binding intensity (ln)” value amounted to 8.63 ± 0.4.
In the case of “AAGAAAAAATATACTTCACACATTTAATATATAATT [CACACA_site4919]” it was 8.55 ± 0.52; in that of “TCGATGTTGGTAGGATGTACGGTACCGGTAGTATTT [XGTACX_site4214]”, 8.93 ± 0.38; in that of “AAAAAAGAATTGTGCACACACAAAAAATGTTCATAA [CACACA_site1103]”, 9.19 ± 0.49.
In the case of “GATATATTTTATATATGTACATACAAGGGTAAATAT [XGTACX_site1202]” it was 8.9 ± 0.42.
In the case of “AAAATAAACTATAGTACACACTTATTATTATGAAAT [CACACA_site5488]” it was 8.9 ± 0.48.
Turning to “TCAATTAGACGAAAATGTACATATGTATATATTTTT [XGTACX_site5027]”, the “gcPBM binding intensity (ln)” value came out at 8.75 ± 0.44.
In the case of “AAAATATGTAGCTACACACACATAAACAAAATAACA [CACACA_site1007]” it was 9.41 ± 0.3; in that of “GAAAACAAAATGGTAACACACAAATGTAAATAGTAT [CACACA_site2113]”, 9.36 ± 0.42; in that of “AAAATAAATAAATACACACACACGAATATTTATATA [CACACA_site6892]”, 9.67 ± 0.13.
To “AAAAAAAAAAAAAAAAGTACACATCATTTTATGAAA [XGTACX_site1402]” belongs 8.45 ± 0.56.
To “ATTATAAAAATATCGTGTACATATTTTTTAAAATAA [XGTACX_site5072]” belongs 8.43 ± 0.42; to “ATTATTTCAATTTTTTTTGTTTTTAAAAAAAAAAAT [CACACA_negctrl_site1387]”, 8.01 ± 0.39; to “TAGTAGTTATCATTAACATGCAATAATATTATTTAA [TGCATGCA_site178]”, 8.53 ± 0.47.
With “ATGAACATATTTTTTTGTACTTATGAAAATATGTTA [XGTACX_site5996]”, the “gcPBM binding intensity (ln)” value worked out at 8.49 ± 0.29.
To “AAGTTAGGATAGATCCAATAATTTTTAGTTTCTCTT [GTGCAC_negctrl_site272]” belongs 8.45 ± 0.49.
To “AAAAAAAAAAAAAAAAGTACTCTATAAGTAACATTT [XGTACX_site6973]” belongs 8.47 ± 0.3; to “ATTTTTTTGTTATTGTTGAAAAGATGGTTCTTTTTT [CACACA_negctrl_site1346]”, 8.59 ± 0.39.
For “AATTTCTTATTTTGTACACACAATAAATATTCACAT [CACACA_site1612]”, the “gcPBM binding intensity (ln)” value worked out at 9.22 ± 0.39.
To “GTTATAAAATATGGCACACAAAATGTAAGTAAATGA [CACACA_site1458]” belongs 9.1 ± 0.54.
Take “GATCTTTAAATTTATTGTACATAAATGTATATGTTA [XGTACX_site1107]”: the “gcPBM binding intensity (ln)” value was found to be 8.71 ± 0.49.
Take “ATATATTTTGTTATGGTGCGTAAGAAATATATTCTT [GTGCAC_site9825]”: the “gcPBM binding intensity (ln)” value came to 8.73 ± 0.43.
Regarding “TATCACATATTATGATGTACAAGGATTCTGACTAAT [XGTACX_site1196]”, the “gcPBM binding intensity (ln)” value came out at 8.64 ± 0.47.
To “TTTATTTATCTGAACACATGCAGACAAATAACATAT [TGCATGCA_site929]” belongs 8.61 ± 0.4.
Take “ATTATATATAAACACACACACATGCATGCACATATA [CACACA_site4237]”: the “gcPBM binding intensity (ln)” value is 9.76 ± 0.13.
As for “CATAAACTTTATAACACACACTTATAAATATAAATA [CACACA_site6646]”, the “gcPBM binding intensity (ln)” value was 9.04 ± 0.35.
In the case of “ATATCTATAATAAACACACACATATACCTATAGGTA [CACACA_site7596]” it was 9.26 ± 0.23; in that of “TATTATATGTATTGCACACCTTCAACAACTACTTCT [CACACA_site655]”, 9.11 ± 0.51.
With “GGGCATATAATATAAAGTACAGGACTATAAAAATAT [XGTACX_site4481]”, the “gcPBM binding intensity (ln)” value amounted to 8.86 ± 0.59.
To “ATTGTGCACTTATATGCACACATTTTAGTTTTTTTT [CACACA_site2028]” belongs 8.97 ± 0.38; to “TATATATTATAAAATAGTACACAGAATTTAAATATA [XGTACX_site100]”, 8.64 ± 0.41; to “TATATATAGAAACACACACACATATATATATATTTT [CACACA_site2540]”, 9.71 ± 0.12.
“TTGTTGATTGTTATTTATCATTAGATGTAAAATATG [CACACA_negctrl_site927]”: the “gcPBM binding intensity (ln)” value worked out at 8.6 ± 0.29.
As to “AATATTTTTTTATAAACACACATATAAATAAATATA [CACACA_site7622]”, the “gcPBM binding intensity (ln)” value was determined as 8.46 ± 0.35.
In the case of “TCTTTTAAACAGTACACACACACATATATATATATA [CACACA_site924]” it was 9.89 ± 0.11; in that of “TTATGAAATAGAATAACACACATATTTATATATGTG [CACACA_site2050]”, 8.93 ± 0.39; in that of “CATAGAATAATTTATTGTACGTGCATGCTATTTTTT [XGTACX_site8984]”, 9.15 ± 0.38.
